From the RNAGym collection of RNA variant scans (doi:10.7554/elife.90254)
Read counts are not given, so values of variants with three or more changes are uncertain.

B1: LINE1-full (parent)
chain: UACGUAGGUGGUUUUCCCCUGAUAGUGCUAAGGGGGCCUGGAAGUUUGGACUGGGCAGAGCUCAACACAGCGUGGCAAAGUGGCUGUGGCUAGACUGCCUCUCUGGAUUCCUCGUCACUCAGCAGGGCAUCUCUGAGAGAAAUGCC

Variants of: B1
Test: self-cleavage, relative activity (ratio to wild type); higher = more cleavage; in vitro, sequencing; the parent is a self-cleaving ribozyme

Variant	self-cleavage
AACGUAGGUGGUUUUCCCCUGAUAGUGCUAAGGGGGCCCGGAAGUUUGGACUGGGCAGAGCUCAACACAGCGUGGCAAAGUGGCUGUGGCUAGACUGCCUCUCUGGAUUCCCCGUCACUCAGCAGGGCAUCUCUGAGAGAAAUGCC [U1A U39C U112C]	1.04
AACGUAGGUGGUAUUCCCCUGAUAGUGCUAAGGGGGCCUGGAAGUUUGGACAGGGCAGAGCUCAACACAGCGUGGCAAAGUGGCUGUGGCUAGACUGCCUCUCUGGAUUCCUCGUCACUCAGCAGGGCAUCUCUGAGAGAAAUGCC [U1A U13A U52A]	0.68
AACGUAGGUGGUUUUCCCCUGAUAGUGCUAAGGGGGCCUGGAGGUUUGGACUGGGCAGAGCUCAACACAGCGUGGCAAAGUGGCUGUGGCUAGACUGCCUCUCUGGAUUCCUCGUCACUCAGCAGGGCAUCUCUGAGGGAAGUGCC [U1A A43G A138G A142G]	2.67
AACGUAGGUGGUUUUCCCCUGAUAGUGCUCAGGGGGCCUGGAAGUUUGGACUGGGCAGAGCUCAACACAGCGUGGCGAAGUGGCUGUGGCUAGACUGCCUCUCUGGAUUCCUCGUCACUCAGCAGGGCAUCUCUGAGAGAAAUGCC [U1A A30C A77G]	0
CGCGUAGGUGGUUUUCACCUGAUAGUGCUAAGGGGGCCUGGAAGUUUGGACUGGGCAGAGCUCAACACAGCGUGGCAAAGUGGCUGUGGCUAGACUGCCUCUCUGGAUUCCUCGUCCCUCAGCAGGGCAUCUCUGAGAGAGAUGCC [U1C A2G C17A A117C A141G]	0.99
AACGUAGGUGGUUUUCCCCUGAUAGUGCUAAGGGGGCCUGGAAGUUUGGACUGGGCAGAGCUCAGCACAGCGAGGCAAAGUGGCUGUGGCUAGACUGCCUCUCUGGAUUCCUCGUCACUCAGCAGGGCAUCUCUGAGAGAAACGCC [U1A A65G U73A U143C]	0.1
AACGUAGGUGGUUUUCCCCUGAUAGUGCUAAGGGGGCCUGGGAGUUUGGACUGGGCAGGGCUCAACACAGCGUGGCAAAGUGGCUGUGGCUAGACUGCCUCUCUGGAUUCCUCGUCACUCAGCAGGGCAUCUCUGAGAGAAAUGCC [U1A A42G A59G]	0.47
AACGUAGGUGGCUUUCCCCUGAUAGUGCUGAGGGGGCCUGGAAGUUUGGACCGGGCAUAGCUCAACACAGCGUGGCAAAGUGGCUGUGGCUAGACUGCCCCUCUGGAUUCCUCGUCACUCAGCGGGGCGUCUCUGAGAGAAAUGCC [U1A U12C A30G U52C G58U U100C A124G A129G]	0
AGCGUAGGUGGUCUUCCCCUGAUAGCGCUAAGGGGGCCUGGAAGUUUGGACUGGGCAGAGCUCAACUCAGCGUGGCAAAGUGGCUGUGGCUAGACUGCCCCUCUGGAUUCCUCGUCACUCAGCAGGGCUUCUCUGAGGGAAAUGCC [U1A A2G U13C U26C A67U U100C A129U A138G]	1.53
AACGUAGGUGGUUCUCCCCUGAUAGUGCUAAGGGGGCCUGGAAGUUUGGACUGGGCAGAGCUCAACACAGCGUGGCAAAGUGGCUGUGGCUAGACUGCCUCUCUGGGUUCCUCGUCACUCAGCAGGGCAUCCCUGAGAGAGAUGCC [U1A U14C A107G U132C A141G]	1.02
AACGUAGGUGGUUUUCCCCUGAUAGUGCUAGGGGGGCCUGGUAGUUUGGACUGGGCAGAGCUCAACACAGCGUGGCAAAGUGGCUGUGGCUAGACUGCCUCUCUGGACUCCUCGUCACUCAGCAGGGCAUCUCAGAGAGAAAUGCC [U1A A31G A42U U108C U134A]	0.77
AACGUAGGUGGUUUUCCCCUGAUAGUGCUAAGGGGGCCUGGAAGUCUGGACUGGGCAGAGCUCAACACAGCGUGGCAAAGUGGCUGUGGCUAGACUGCCUCUCUGGAUUCCUCGUCACUCAGCAGGGCAUCUCUGUGAGAAAUGCC [U1A U46C A136U]	0.86
AACGUAGGUGGUUUUUCCCUGAUAGUGCUAAGGGGGCCUGGAAGUUUGGACUGGGCAGAGCUCAACACAGCGUGGCAAAGUGGCUGAGGCUAGACUGCCUCUCUGGAUUCCUCGUCGCUCAGCGGGGCAUCCCUGAGAGAAAUGCC [U1A C16U U87A A117G A124G U132C]	0
AACGUAGGUGGUUUUCCCCUGAUAGUGCUAAGGGGGCCCGGCAGUUUGGACUGGGCAGAGCUCAACACAGCGUGGCAAAGUGGCUGUGGCUAGACUGCCUCUCUGGAUUCCUCGCCACUCAGCAGGGCAUCUCUGAGAGAGAUGCC [U1A U39C A42C U115C A141G]	0
AACGUAGGAGGUUUUCCCCUGAUAGUGCUAAGGGGGCCUGGAAGUUUGGACUGGGCAGAGCUCAACACAGCGUGGCAAAGUGGCUGUGGCUAGACUGCCCCUCUGGAUUCCUCGUCACUCAGCAGGGCAUCUCUGAGAGAAAUGCC [U1A U9A U100C]	1.25
AACGUAGGUGGUUUUCCCCUGACAGUGCUAAGGGGGCCUGGAAGUUUGGACUGGGCAGAGCUCAACACAGCGUGGCAGAGUGGCUGUGGCUAGACUGCCUCUCUGGAUUCCUCGUCACUCAGCAGGGCAUCUCUGAGAGAAAUGCC [U1A U23C A78G]	2.92
AACGUAGGAGGUUUUCCCCUGAUAGUGCUAAGGGGGCCUGGAAGUUUGGACUGGGCAGAGCUCAACACAGCGUGGCAAAGUGGCUGUGACUAGACUGCCUCUCUGGACCCCUCGUCACUCAGCAGGGCAUCUCUGAGAGAAAUGCC [U1A U9A G89A U108C U109C]	0
AACGUAGGAGGUUCUCCCCUGAUAGUGCUAAGGGGGCCUGGAAGUUCGGACUGGGCAGAGCUCAACACAGCGUGGCAAAGUGGCUGUGGCUAGACUGCCUCUCUGGAUUCCUCGUCACUCAGCAGGGCAUCUCUGAGAGAAAUGCC [U1A U9A U14C U47C]	0.93
AACGUAGGUGGUCUUCCCCCGAUAGUGCUAAGGGGGCCUGGAAGUUUGGACUGGGCAGAGCUCAACACAGCGUGGCAAAGUGGCUGUGGCUAGACUGCCUCUCUGGAUUCCUCGUCACUCAGCAGGGCGUCCCUGAGAGAAAUGCC [U1A U13C U20C A129G U132C]	1.78
AACGUGGGUGGUUUUCCCCUGAUAGUGCUAAGGGGGCCUGGAAGUUUGGACUGGGCAGAGCUCAACACAGCGUGGCAAAGUGGCUGUGGCUAGACUGCCUCUCUGGAUUCCUCGUCACUCAGCAGGGCAUCUCUGGGAGAAAUGCC [U1A A6G A136G]	1.35
